# According to PubChem BioAssay AID1963576 (National Center for Advancing Translational Sciences (NCATS), 2024):
# Among all 46,000 compounds or so, about 60 (0.1%) were called active. Inconclusive results (about 3%) are left out. Calls follow the shape of the dose curve; as a rule, active = well fitted inhibition curve with a large enough effect; inconclusive = small, poorly fitted or top-dose-only effect; inactive = no such curve, though single readings can be large or run the other way. This is one part of the list.
# Test: Primary qHTS assay for Inhibitors of ovarian cancer metastasis using an organotypic tumor microenvironment (TME) model. Also: nearly all actives have a fitted effect of over 65% in size.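 As to activity change, negative = inhibition: plate controls were DMSO wells for no effect and tomatine positive control wells for full effect.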
# Conditions: SKOV3ip1-GFP adhesion/invasion on 3D omental model, fluorescence; series mostly up to 45.8 µM; activity change, negative = inhibition: at the top concentration
# Procedure, shortened: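 Primary human omental fibroblast/mesothelial 3D culture pre-formed 48 h. SKOV3ip1-GFP cells added with compounds (0.36-46 umol/L), incubated 2 h RT/16 h 37 C, fixed; GFP cells quantified at 488/509 nm.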
Compound,outcome,"activity change, negative = inhibition"
Cc1c(C(=O)N2CCOCC2)oc2c1-c1nn(CC(=O)NCc3cccc(F)c3)cc1CC2,inactive,
COC(=O)c1ccc(Cl)cc1NC(=O)NCCc1c(C)nn(C)c1C,inactive,
CC(C)c1ccc(NC(=O)Cn2c(=O)n(CC3CCC(C(=O)NCCc4ccccc4)CC3)c(=O)c3ccccc32)cc1 (configuration not stated),,inactive: 9.8%
Cc1ccc(S(=O)(=O)C2(C(=O)Nc3ccc(Cl)c(C(F)(F)F)c3)CC2)cc1,,inactive: -1.44%
CCOC(=O)c1cccc(NC(=O)CCS(=O)(=O)c2ccc3c(c2)CC(=O)N3C)c1,inactive,
Cc1ccc(/C=C(\C#N)c2nc(-c3ccc(-c4ccccc4)cc3)cs2)cc1,,inactive: -7.48%
CCOc1ccccc1CNC(=O)CCc1c(C)nn(-c2ccc(N3CCCC3)nn2)c1C,,inactive: -4.92%
Cc1ccc(CNc2ccc(-c3nc(-c4ccncc4)no3)cc2[N+](=O)[O-])cc1,,inactive: -5.21%
Cc1cccc(N2CCN(C(=O)CS(=O)(=O)c3cccc4nsnc34)CC2)c1C,,inactive: 10.6%
Cc1ccc(Cl)cc1N1CCN(C(=O)C2CCC(CNS(=O)(=O)c3cccs3)CC2)CC1 (configuration not stated),,inactive: -1.12%
CCOC(=O)c1c(C)[nH]c(C)c1S(=O)(=O)N1CCC(C(=O)Nc2cc(C)ccn2)CC1,inactive,
CC(C)(C)C1CCc2c(sc(NC(=O)Cn3nnc(-c4ccccc4Cl)n3)c2C#N)C1 (configuration not stated),inactive,
O=C(NCCCCN1CCOCC1)c1cc2ccccc2o1,,inactive: -6.8%
COc1ccc(-n2ccnc2SCC(=O)Nc2ccc3c(c2)OCO3)cc1,inactive,
CCc1ccccc1N(CC)C(=O)c1c(C)oc2ncn(C)c(=O)c12,,inactive: -3.07%
COc1ccccc1N1CCN(C(=O)c2cc(CC(C)C)on2)CC1,,inactive: 32.4%
CCc1ccccc1NS(=O)(=O)c1ccc2[nH]cc(C(=O)N(CC(C)C)CC(C)C)c(=O)c2c1,,inactive: 1.76%
Cc1ccc2nc(COc3ccccc3NC(=O)COc3ccc(F)cc3)cc(=O)n2c1,,inactive: -0.725%
Cc1ccc(-c2nc(S(=O)(=O)c3ccccc3)c(N3CCN(c4ccccc4)CC3)o2)cc1,,inactive: 7.1%
Oc1ccc(-c2ccc(-c3cc(Nc4cccc(CNC5CC5)c4)n[nH]3)cc2)c(O)c1,,inactive: 19.7%
CCc1ccc2nc(N(CCN(CC)CC)C(=O)c3cccs3)sc2c1,,inactive: 7.43%
COc1ccc(-c2nc(SCC(=O)Nc3ccc4c(c3)OCCO4)c(-c3ccc(F)cc3)[nH]2)cc1,,inactive: -14.2%
Cc1cccc(C(C)C)c1NC(=O)Cn1c(=O)oc2cc(S(=O)(=O)N3CCCC3)ccc21,inactive,
COc1ccc(NC(=O)C2CCN(S(=O)(=O)c3ccc4c(c3)CCCC(=O)N4)CC2)cc1OC,inactive,

Compound,outcome,"activity change, negative = inhibition"
O=C(Nc1ccccc1C(=O)OCc1cc(=O)n2c3c(sc2n1)CCCC3)c1ccc(F)cc1,,inactive: 0.79%
COc1cccc(C(=O)Nc2nc3nc(-c4ccccc4)cc(=O)n3[nH]2)c1,,inactive: 1.3%
COc1cc(Nc2nc(SCc3ccc(Cl)cc3)nc3ccccc23)cc(OC)c1,inactive,
COc1ccc(-c2oc3ncn4nc(COc5cccc(C)c5C)nc4c3c2-c2ccc(OC)cc2)cc1,inactive,
COc1cccc(CNC(=O)C2=C(C)C(=O)OC23CCN(C(C)=O)CC3)c1OC,,inactive: -0.723%
CC(=O)c1ccc(NC(=O)CN2C(=O)CN(C)C(=O)c3ccccc32)cc1,,inactive: -6.05%
CCOC(=O)c1c(-c2ccc(C)cc2)csc1NC(=O)c1cc(=O)c2cc(C)ccc2o1,,inactive: -6.3%
O=C(Cn1c(=O)nc(-c2ccccc2)c2ccccc21)NCCc1ccccc1,,inactive: 19%
O=C1c2oc3ccccc3c(=O)c2C(c2cccc(O)c2)N1c1nncs1 (configuration not stated),,inactive: -9.53%
O=C(COCc1cc(-c2cccs2)on1)N1CCN(c2ccccc2)CC1,inactive,
COc1cc(C(=O)Nc2ccc(NC(=O)c3ccc(C(C)(C)C)cc3)cc2)cc(OC)c1OC,inactive,
COc1cccc(C(=O)N2CCC(C(=O)Nc3cccc(Cl)c3)CC2)c1,inactive,
Cc1cccc(CNC(=O)c2ccc(N3Cc4ccccc4Oc4ncccc43)s2)c1,inactive,
CN(C)c1cccc(C(=O)N2CCC(c3c[nH]c4ccccc34)(c3c[nH]c4ccccc34)CC2)c1,inactive,
CCC(C(=O)NCc1cc(OC)ccc1OC)n1nc(C)c2sc3ccccc3c2c1=O (configuration not stated),,inactive: -2.59%
Fc1ccc(NCc2nnc3n2CCCCC3)cc1Cl,,inactive: 3.46%
COc1ccc(OC)c(CNC(=O)C2CCCN(c3ncnc4onc(-c5ccc(F)cc5)c34)C2)c1 (configuration not stated),,inactive: 5.6%
CC(C)c1ccc(N2C(=O)CSC23C(=O)N(Cc2cccc(F)c2)c2ccccc23)cc1 (configuration not stated),inactive,
COc1ccccc1C(=O)Nc1ccc2nc(SCCOc3ccccc3C)sc2c1,,inactive: 6.69%
COc1ccc(NC(=O)C(NS(=O)(=O)c2cccc3nsnc23)C(C)C)cc1 (configuration not stated),,inactive: 7.8%
COc1ccccc1CNc1nc2c(S(=O)(=O)c3ccc(C)c(C)c3)nnn2c2ccc(Cl)cc12,,inactive: 4.75%
COC(=O)c1ccc(C2Nc3c(C)cccc3-c3cc(C)nn32)cc1 (configuration not stated),,inactive: 0.693%
O=C(Cn1c(=O)oc2cc(S(=O)(=O)NCc3ccccc3)ccc21)Nc1cccc(F)c1,inactive,
